Assay results published in PMC3521654, “The Nuclear Chaperone Nucleophosmin Escorts an Epstein-Barr Virus Nuclear Antigen to Establish Transcriptional Cascades for Latent Infection in Human B Cells” (PLoS Pathogens, 2012).

Tests used:
GST-E2 300–360 = target: T1, GST-E2 300–360 (Epstein-Barr virus, UniProt P12978 300-360); assay: pull-down; conditions: one partner purified
T1 construct: source: E. coli BL21 (DE3) pLys, purified (GST-sepharose)
T1 sequence: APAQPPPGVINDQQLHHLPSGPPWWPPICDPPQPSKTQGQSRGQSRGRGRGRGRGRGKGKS

[1] = target: T2, EBNA2 from the transfected expression vector (pSG5-EBNA2, E2) (Epstein-Barr virus, UniProt P12978 1-487); assay: cell-based or functional assay
T2 sequence (looked up): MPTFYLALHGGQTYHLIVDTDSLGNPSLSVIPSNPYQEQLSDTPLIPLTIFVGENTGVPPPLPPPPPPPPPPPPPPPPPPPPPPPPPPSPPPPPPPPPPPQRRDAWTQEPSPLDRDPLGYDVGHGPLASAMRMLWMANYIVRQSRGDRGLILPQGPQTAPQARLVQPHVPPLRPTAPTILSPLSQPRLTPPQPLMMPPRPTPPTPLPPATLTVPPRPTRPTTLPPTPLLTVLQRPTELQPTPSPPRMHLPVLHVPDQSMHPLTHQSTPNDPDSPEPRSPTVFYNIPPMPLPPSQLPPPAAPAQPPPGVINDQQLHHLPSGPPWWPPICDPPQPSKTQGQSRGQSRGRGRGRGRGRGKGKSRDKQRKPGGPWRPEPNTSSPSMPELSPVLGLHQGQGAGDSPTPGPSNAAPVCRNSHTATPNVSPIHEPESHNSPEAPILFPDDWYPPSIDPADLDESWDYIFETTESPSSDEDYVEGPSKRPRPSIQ

B1: flag-tagged NPM1 truncated deletion mutant C1 ([…]) (domain or fragment)
chain: not shown
notes: source: BJAB, transfected, in lysate
GST-E2 300–360
  percent of input pulled down: ~2%
[1]
  co-activation of EBNA2-dependent LMP1-Luc reporter activity in BJAB cells: 2.5 fold
